# Measured values as given in the supplement of paper PMC8728848.
# The list shows a part of the results.
# Legend:
# Test in all cases: glycan array binding signal (z-score within array); higher = stronger binding
# Conditions in all cases: glycan notation: IUPAC condensed, linker removed
# Gal3S(b1-4)Glc = target: Gal3S(b1-4)Glc
# Procedure, shortened: (§1)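 The binding signal is a Z-score computed within each array and averaged over linkers. Arrays of the same protein sequence at different concentrations or buffers were also averaged together. Data originate from 3228 arrays in the Consortium for Functional Glycomics database, kept only where the protein sequence was available.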
# Gal3S(b1-4)Glc6S = target: Gal3S(b1-4)Glc6S
# Procedure, shortened: as §1
# Gal3S(b1-4)GlcNAc = target: Gal3S(b1-4)GlcNAc
# Procedure, shortened: as §1
# [1] = target: Gal3S(b1-4)[Fuc(a1-3)]Glc6S
# Procedure, shortened: as §1
# [2] = target: Gal3S(b1-4)[Fuc(a1-3)]GlcNAc
# Procedure, shortened: as §1
# [3] = target: Gal3S(b1-4)[Fuc(a1-3)]GlcNAc6S
# Procedure, shortened: as §1
# Gal3S4S(b1-4)GlcNAc = target: Gal3S4S(b1-4)GlcNAc
# Procedure, shortened: as §1
# Gal3S6S(b1-4)GlcNAc = target: Gal3S6S(b1-4)GlcNAc
# Procedure, shortened: as §1
# Gal3S6S(b1-4)GlcNAc6S = target: Gal3S6S(b1-4)GlcNAc6S
# Procedure, shortened: as §1
# Gal4S(b1-4)GlcNAc = target: Gal4S(b1-4)GlcNAc
# Procedure, shortened: as §1
# Gal4S6S(b1-4)GlcNAc = target: Gal4S6S(b1-4)GlcNAc
# Procedure, shortened: as §1
# Gal6P(b1-4)GlcNAc = target: Gal6P(b1-4)GlcNAc
# Procedure, shortened: as §1
# Gal6S(b1-3)GlcNAc = target: Gal6S(b1-3)GlcNAc
# Procedure, shortened: as §1
# Gal6S(b1-3)GlcNAc6S = target: Gal6S(b1-3)GlcNAc6S
# Procedure, shortened: as §1
# Gal6S(b1-4)Glc = target: Gal6S(b1-4)Glc
# Procedure, shortened: as §1
# Gal6S(b1-4)Glc6S = target: Gal6S(b1-4)Glc6S
# Procedure, shortened: as §1
# Gal6S(b1-4)GlcNAc = target: Gal6S(b1-4)GlcNAc
# Procedure, shortened: as §1
# Gal6S(b1-4)GlcNAc6S = target: Gal6S(b1-4)GlcNAc6S
# Procedure, shortened: as §1
# GalNAc(a1-3)Gal = target: GalNAc(a1-3)Gal
# Procedure, shortened: as §1
# GalNAc(a1-3)GalNAc = target: GalNAc(a1-3)GalNAc
# Procedure, shortened: as §1
# [4] = target: GalNAc(a1-3)GalNAc(b1-3)Gal(a1-4)Gal(b1-4)Glc
# Procedure, shortened: as §1
# [5] = target: GalNAc(a1-3)GalNAc(b1-3)Gal(a1-4)Gal(b1-4)GlcNAc
# Procedure, shortened: as §1
# GalNAc(b1-3)Gal = target: GalNAc(b1-3)Gal
# Procedure, shortened: as §1
# [6] = target: GalNAc(b1-3)Gal(a1-4)Gal(b1-4)GlcNAc
# Procedure, shortened: as §1
# [7] = target: GalNAc(b1-3)Gal(a1-4)Gal(b1-4)GlcNAc(b1-3)Gal(b1-4)Glc
# Procedure, shortened: as §1
# [8] = target: GalNAc(b1-3)Gal(a1-6)Gal(b1-4)Glc
# Procedure, shortened: as §1
# GalNAc(b1-3)GalNAc = target: GalNAc(b1-3)GalNAc
# Procedure, shortened: as §1
# GalNAc(b1-3)GlcNAc = target: GalNAc(b1-3)GlcNAc
# Procedure, shortened: as §1
# GalNAc(b1-4)Gal(b1-4)Glc = target: GalNAc(b1-4)Gal(b1-4)Glc
# Procedure, shortened: as §1
# GalNAc(b1-4)GlcNAc = target: GalNAc(b1-4)GlcNAc
# Procedure, shortened: as §1
# [9] = target: GalNAc(b1-4)GlcNAc(b1-2)Man
# Procedure, shortened: as §1
# [10] = target: GalNAc(b1-4)GlcNAc(b1-2)Man(a1-3)[GalNAc(b1-4)GlcNAc(b1-2)Man(a1-6)]Man(b1-4)GlcNAc(b1-4)GlcNAc
# Procedure, shortened: as §1
# [11] = target: GalNAc(b1-4)GlcNAc(b1-3)GalNAc(b1-4)GlcNAc
# Procedure, shortened: as §1
# GalNAc(b1-4)GlcNAc6S = target: GalNAc(b1-4)GlcNAc6S
# Procedure, shortened: as §1
# GalNAc(b1-6)GalNAc = target: GalNAc(b1-6)GalNAc
# Procedure, shortened: as §1
# GalNAc3S(b1-4)GlcNAc = target: GalNAc3S(b1-4)GlcNAc
# Procedure, shortened: as §1
# GalNAc3S(b1-4)GlcNAc3S = target: GalNAc3S(b1-4)GlcNAc3S
# Procedure, shortened: as §1
binder,measurement,setting,value
PX14343H-pdi-506-26-506 (Parabacteroides distasonis) (protein) QPTGTMTTDSKLTSKESALALTNSAYLKNTVFNKMTPGWGCNTILLLEYMTGKATSENSQSNYKDFQDLLVSDRSLYIEDWWQDCYAGIANCNLALQKLGEFENLDASLVNGYMAEVKFMRALYYFYLVRIFGDVPKITTVQSELGELQVSRAPVKEIYDEIIIPDLLEAEQSDLAFSDHTGRVSMGAVKALLADVYLTYAGYPLQGGKSYYAESAKRSLEVIKSNEYTLFTDYESLRLPSQNNKGEFIYQVQFSLNKRHNESVRIFLPSRSGISAYDLEYGSLIPTKEFVESFEKGDKRTEEKQYFFTNYKGHPSKFSPGAAELEFMDLNGYYIYKFFDQVAVDNTAKSDLNWSVYRYTDVLLMYAEAQVNADGTPNQQSIDIVNQIRGRAGLAPFKQTNASAFLEEVWDQRYFDLCYENKMWFDMLRTRKIRDDKSGEYVDFIGYKTNWGKVYTETQLLFPIPLSERQANPNLTQNQGY,glycan array binding signal (z-score),Gal3S(b1-4)Glc,-0.199
same,glycan array binding signal (z-score),Gal3S(b1-4)Glc6S,-0.412
same,glycan array binding signal (z-score),Gal3S(b1-4)GlcNAc,-0.235
same,glycan array binding signal (z-score),[1],0.527
same,glycan array binding signal (z-score),[2],-0.317
same,glycan array binding signal (z-score),[3],0.077
same,glycan array binding signal (z-score),Gal3S4S(b1-4)GlcNAc,-0.293
same,glycan array binding signal (z-score),Gal3S6S(b1-4)GlcNAc,-0.11
same,glycan array binding signal (z-score),Gal3S6S(b1-4)GlcNAc6S,-0.303
same,glycan array binding signal (z-score),Gal4S(b1-4)GlcNAc,-0.394
same,glycan array binding signal (z-score),Gal4S6S(b1-4)GlcNAc,-0.505
same,glycan array binding signal (z-score),Gal6P(b1-4)GlcNAc,-0.375
same,glycan array binding signal (z-score),Gal6S(b1-3)GlcNAc,-0.521
same,glycan array binding signal (z-score),Gal6S(b1-3)GlcNAc6S,-0.293
same,glycan array binding signal (z-score),Gal6S(b1-4)Glc,0.262
same,glycan array binding signal (z-score),Gal6S(b1-4)Glc6S,0.667
same,glycan array binding signal (z-score),Gal6S(b1-4)GlcNAc,1.27
same,glycan array binding signal (z-score),Gal6S(b1-4)GlcNAc6S,-0.324
same,glycan array binding signal (z-score),GalNAc(a1-3)Gal,1.07
same,glycan array binding signal (z-score),GalNAc(a1-3)GalNAc,-0.058
same,glycan array binding signal (z-score),[4],-0.378
same,glycan array binding signal (z-score),[5],-0.484
same,glycan array binding signal (z-score),GalNAc(b1-3)Gal,0.069
same,glycan array binding signal (z-score),[6],-0.287
same,glycan array binding signal (z-score),[7],-0.107
same,glycan array binding signal (z-score),[8],-0.047
same,glycan array binding signal (z-score),GalNAc(b1-3)GalNAc,0.076
same,glycan array binding signal (z-score),GalNAc(b1-3)GlcNAc,-0.219
same,glycan array binding signal (z-score),GalNAc(b1-4)Gal(b1-4)Glc,0.09
same,glycan array binding signal (z-score),GalNAc(b1-4)GlcNAc,-0.039
same,glycan array binding signal (z-score),[9],-0.255
same,glycan array binding signal (z-score),[10],-0.111
same,glycan array binding signal (z-score),[11],-0.216
same,glycan array binding signal (z-score),GalNAc(b1-4)GlcNAc6S,-0.261
same,glycan array binding signal (z-score),GalNAc(b1-6)GalNAc,-0.371
same,glycan array binding signal (z-score),GalNAc3S(b1-4)GlcNAc,-0.557
same,glycan array binding signal (z-score),GalNAc3S(b1-4)GlcNAc3S,-0.407
